In the data set the test system is ATP. Put plainly: switch fluorescence ratio, 500 uM ATP over buffer (Cy3 cluster intensity, sum of 5 cycles each) (fold (ratio)); higher = stronger signal-on switching upon ATP binding; sequences stand for … in TCGTCGGCAGCGTCAGATGTGTATAAGAGACAGTTTTTTTTTTTTTTTTTTTTTTTTT…TC. Particulars: aptamer strand: ATP DNA aptamer (quencher-CACCTGGGGGAGTATTGCGGAGGAAGG + anchor), 100 nM annealed; ATP concentration: 500 uM; one replicate. The procedure, abridged: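 After annealing to 100 nM quencher-labelled ATP aptamer, Cy3-labelled switching-strand clusters on a modified Illumina MiSeq flow-cell were imaged in selection buffer. A second image followed after 15 min with 500 uM ATP at 22 °C, and five such buffer/ATP cycles were done, each separated by NaOH stripping and re-annealing. The fluorescence ratio, averaged per switch-domain sequence, is summed target-cycle over summed buffer-cycle Cy3 intensity per cluster, with clusters outside 100-1000 RFU excluded.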

Values marked as one replicate rest on one cluster of the flow cell; about a third of the high ones do not repeat.
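Note: ATP exposure 15 min at 22 °C before imaging.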

Turning to GACCTTTACC, the switch fluorescence ratio is 1.38.
On to GATGCCGAGA, for which the switch fluorescence ratio is 0.99.
The result for GTGGGAGCTT reads 0.973; that for AGCGCCCGCA, 1.07; that for GATGTGCTTT, 0.959.
Under TACCTGGCCC stands 1.08; under GACCTAGTAC, 1.25; under GAGGAATCGG, 1.
The result for CCAATAACGA reads 1.03; that for GGGCGTATGA, 1.09.
In the case of GAGGGTGATG, the switch fluorescence ratio came to 0.955.
The result for TTTTTGAGCC reads 0.96.
As for CCGGAGTTGT, the switch fluorescence ratio was 5.13.
GATTTGGTTA: the switch fluorescence ratio came out at 1.01.
The result for GCTATCTAAA reads 0.988; that for TTAGATGCTT, 0.978; that for GGTGAATGAC, 1.01.
The result for AATGTAGCAG reads 1.03; that for GTCGGGGGTC, 0.977; that for ATTTTATCC, 1.03.
Under AATAAGCTGT stands 0.982.
As for CCAGCCAGGC, the switch fluorescence ratio was 1.09.
The result for TGGTATACCG reads 0.979.
Under TGAGCAGTGG stands 1.14; under CGGTCTGTA, 1.06; under GAGCTGAAGG, 0.984.
Under TCCTTAAAAG stands 0.949; under GACGGCCCTA, 1.02; under GCACGAAGAC, 4.51.
AGTCAGGGAG: the switch fluorescence ratio came to 1.01.
Under GAAGTTGGA stands 1.01.
Regarding TGTGGTCGCT, the switch fluorescence ratio turned out to be 1.
The result for GCCCCTGGTA reads 1.26.
With TTATCCGGTC, the switch fluorescence ratio amounted to 0.947.
Under GCTAGTCACG stands 0.979.
The result for CAGAAGTATG reads 1.02; that for CGGATGTCCT, 1.03; that for TAGGAATGTA, 0.954.
Take GTTCGCCCGT: the switch fluorescence ratio was 1.03.
For the sequence AGGCCAACGT, the switch fluorescence ratio amounted to 1.03.
Under GGGGCTGCAT stands 0.967; under TTTGACTAAC, 1.11.
For the sequence ATTTCGGCGG, the switch fluorescence ratio stood at 0.981.
As for TCTTCAATCC, the switch fluorescence ratio was found to be 1.09.
Under GCGTTATATG stands 1.02.
Under GTAGTGTCGT stands 1.01; under CATTACGTTT, 1.01; under ATCATTAAAA, 0.914.
In the case of AGCTAACTTA, the switch fluorescence ratio worked out at 0.986.
For the sequence TATGACTTTT, the switch fluorescence ratio is 0.99.
The result for AAGTAGGTTT reads 0.952; that for TCCTTTTCGC, 1.22.
Take GCCCTTGGCT: the switch fluorescence ratio was found to be 0.992.
In the case of GTATTCATGG, the switch fluorescence ratio turned out to be 0.949.
Under ATCGACAATT stands 1.04; under AATCGGCCGC, 1.02.
The result for CGAATGGCTG reads 0.989; that for CAAAGGGACG, 1.01.
For AGGGGTTAGA, the switch fluorescence ratio amounted to 0.975.
The result for AGCCGGTACC reads 1.02.
Take GGTTAGAGCG: the switch fluorescence ratio amounted to 0.987.
The result for ACCCTGCAAC reads 2.89; that for CCAGCACCCG, 1.11.
The result for GAAGATGAAG reads 0.936; that for GTTCGGTAAT, 1.04; that for GATGAGGACG, 1.04.
TTAGGATCTA: the switch fluorescence ratio came to 0.967.
As to AGTTTATCAC, the switch fluorescence ratio is 1.
The result for CATTTCATGG reads 0.995; that for TCCAATAGGA, 0.978; that for TTTGAAACAC, 1.08.
Regarding AAACCGATAT, the switch fluorescence ratio was 1.04.
Under AGATGAACTG stands 0.913; under TCGGTACATT, 1.04; under AATACCCACG, 1.54.
The result for ATTGCACCTG reads 1.01; that for TGATTATGTA, 1.03.
The result for GTGTACCGTG reads 0.98; that for GATTTGCATT, 0.999.
With ACCGTTGAGC, the switch fluorescence ratio amounted to 1.02.
Under GCAGATGGCC stands 0.98; under GGGTCGATAA, 0.992.
Turning to CCTTGTTAG, the switch fluorescence ratio stood at 0.997.
Under TTTCAGAAAA stands 1.04; under AACTTTGGTA, 1; under TTGCTTCTTC, 1.07.
Take TTGGCGTACG: the switch fluorescence ratio is 1.03.
With GGTAACGGTT, the switch fluorescence ratio was found to be 0.956.
Consider TGATACCAGG, for which the switch fluorescence ratio is 1.44.
With GGGCTAGCTA, the switch fluorescence ratio was 0.993.
The result for GCAAGCACTA reads 1.23; that for AACCGAATTC, 1.08.
The result for TAAGATTTGA reads 0.963; that for GATTGGGTTA, 0.979; that for CTGTTAGGCC, 1.01.
Under CGGGCGGCTG stands 0.998; under TGCCGAAATT, 1.06.
For CAGCATACAT, the switch fluorescence ratio is 1.17.
Under AGGGAAATTC stands 0.96; under CTCTGGCAGC, 2.41; under GTTTCCTCCG, 5.33.
CAGTGTACAT: the switch fluorescence ratio was 1.08.
The result for GATCTTGACT reads 1.01.
The result for ACACGGGGCC reads 1.05; that for CCATTTCGC, 1.03.
Under GTAAGCGCTG stands 0.965.
Consider AAAGGTAAAT, for which the switch fluorescence ratio turned out to be 1.03.
On to ATTACTCTTT, for which the switch fluorescence ratio turned out to be 1.02.
As to ATCATGGCAG, the switch fluorescence ratio amounted to 0.975.
For the sequence GACTGGTGCC, the switch fluorescence ratio is 1.03.
The result for TAACAAAAAC reads 1.17; that for CTGGTACTAG, 0.99.
Turning to GGAGCGAGTA, the switch fluorescence ratio is 1.03.
Under AAGTGATGCG stands 0.972.
The result for CTTCACTCGA reads 0.986; that for ATAATACGAG, 1.11.
Regarding CTGTTTTTAC, the switch fluorescence ratio came to 1.04.
As for TAGATCGTGG, the switch fluorescence ratio stood at 1.26.
As to ATGGATCGAC, the switch fluorescence ratio amounted to 0.991.
For the sequence CGTGATAATA, the switch fluorescence ratio worked out at 0.969.
